In all, about 46,000 compounds went through this assay and about 60 (0.1%) were called active. Inconclusive results (about 3%) are left out. The call rests on the fitted dose curve; in most records, active means well fitted inhibition curve with a large enough effect; inconclusive means small, poorly fitted or top-dose-only effect; inactive means no such curve, though single readings can be large or run the other way. The list shows a part of the results.
Test: Primary qHTS assay for Inhibitors of ovarian cancer metastasis using an organotypic tumor microenvironment (TME) model. Further: nearly all actives have a fitted effect of over 65% in size.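 On activity change, negative = inhibition: plate controls were DMSO wells for no effect and tomatine positive control wells for full effect.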
Conditions: SKOV3ip1-GFP adhesion/invasion on 3D omental model, fluorescence; series mostly up to 45.8 µM; activity change, negative = inhibition: at the top concentration
Method in brief: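 A 3D layer of primary human omental fibroblasts, mesothelial cells, fibronectin and collagen I, grown 48 hr, received SKOV3ip1-GFP cells in serum-free medium plus compounds at 0.36-46 umol/L. After 2 hr RT and 16 hr 37 C, fixed adherent GFP cells were counted; normalized to DMSO and tomatine.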

Activity change, negative = inhibition, inactive:
COc1ccc(OC)c(NC(=O)CSC2=Nc3ccccc3C3=NC(CCC(=O)NCc4ccccc4)C(=O)N23)c1 (configuration not stated) 25%, CCc1nn(CC(=O)N2CCC(C)CC2)c(=O)c2cc3occc3n12 265%, Cc1ccc(NC(=O)CSc2nc3ccccc3n2CC(=O)N2CCC(C)CC2)cc1C -6.02%, Cc1cccc(N2CCN(C(=O)CN3C(=O)COc4ccc(S(=O)(=O)N5CCC(C)CC5)cc43)CC2)c1C -2.62%, Cc1ccc2sc(N(Cc3cccnc3)C(=O)Cc3ccccc3)nc2c1C 6.8%, CCC(=O)Oc1cc(C(C)(C)C)cc2cc(-c3nc(-c4ccc(OC)cc4OC)no3)c(=O)oc12 -1.49%, CCOc1ccc(N(CC(=O)Nc2cc(OC)cc(OC)c2)S(=O)(=O)c2c(C)[nH]c(=O)[nH]c2=O)cc1 1.21%, Cc1ccc(-n2nc3c(N4CCC(C(=O)NC5CCC(C)CC5)CC4)nnc(C)c3c2C)cc1 (configuration not stated) -2.9%, O=C(CCCCCCC(=O)Nc1ccc([C@H]2O[C@@H](CSc3nc(-c4ccccc4)c(-c4ccccc4)o3)C[C@@H](c3ccc(CO)cc3)O2)cc1)NO -15.5%, CN(C)CCNC(=O)c1ccc(Cn2c(SCc3ccc(F)cc3)nc3cccnc32)cc1 -17%, Cc1ccc(C(=O)c2cn(Cc3ccccc3F)c3cc4c(cc3c2=O)OCCO4)cc1 -30.5%, CN(CC(=O)NCc1ccc(Cl)cc1)S(=O)(=O)c1ccc2[nH]c3c(c2c1)CCCC3 -18%, COc1ccc(CNc2nc(-c3ccccc3)nn2S(=O)(=O)c2ccccc2)cc1 -11.9%, Cc1ccc2c(c1)c1c(c(=O)n(-c3cccc(Cl)c3)c(=O)n1CC(=O)NCCC1=CCCCC1)n2C 4.39%, COc1ccccc1CNC(=O)CCC1N=C2c3ccccc3N=C(SCC(=O)Nc3ccc(F)cc3)N2C1=O (configuration not stated) 1.73%, CCCc1cc(=O)n2c(C(=O)Nc3ccc(OCC)cc3)c(C(=O)Nc3ccc(C)cc3)sc2n1 -3.01%, COc1cccc(C2c3c(oc4cc(C)cc(C)c4c3=O)C(=O)N2CCc2ccc(OC)c(OC)c2)c1 (configuration not stated) 5.57%, CCOC(=O)C1CCC(CN(Cc2ccc(OC)cc2)S(=O)(=O)c2ccc(F)c(C(=O)Nc3ccc(C)c(C)c3)c2)CC1 (configuration not stated) -0.687%, CCc1ccc(NS(=O)(=O)c2ccc3oc(=O)c4ncn(CC)c4c3c2)cc1 -7.53%, O=C(Nc1nnc(-c2cc(Cl)ccc2Cl)o1)c1ccc2c(c1)OCCO2 7.12%, Cc1ccc(NC(=O)N2CCc3cc(S(=O)(=O)N4CCC(C)CC4)ccc32)cc1 0.682%, CCN(C(=O)Cn1c(=O)n(CCCS(=O)(=O)C2CCCCC2)c(=O)c2ccccc21)c1cccc(C)c1 1.85%, CCn1c(CN2CCOCC2)nc2cc(NC(=O)c3ccccc3[N+](=O)[O-])ccc21 -0.163%, CCC1CN(C(=O)N2CCC(C(=O)NCCc3cc(OC)ccc3OC)CC2)c2ccccc2O1 (configuration not stated) -5.13%, CCN(CC)S(=O)(=O)c1ccc2c(c1)N(CC(=O)N1CCN(c3cccc(Cl)c3)CC1)C(=O)CO2 -3.27%, CN(C)C1(CNC(=O)COc2ccc([N+](=O)[O-])cc2)CCCCC1 11.6%, Cc1cc(Cl)ccc1NC(=O)Cn1nc(C)c2c(C)n(-c3ccccc3)nc2c1=O 15.6%, Cc1ccc(Cl)cc1Nc1nn2c(=O)c3ccc(C(=O)Nc4ccc(F)cc4)cc3nc2s1 -8.38%, CC(=O)Nc1cc(-c2nc3cc(Cl)ccc3o2)ccc1C -10.7%, CC1CCN(C(=O)Cn2c(=O)n(CCCCCC(=O)NCc3ccccc3Cl)c(=O)c3sccc32)CC1 -5.8%, CCOC(=O)c1ccccc1NC(=O)N1CCN(Cc2cc(=O)n3nc(-c4ccccc4)sc3n2)CC1 8.28%, Cc1[nH]n(-c2ccccc2)c(=O)c1C(c1cc(Cl)ccc1O)c1c(C)[nH]n(-c2ccccc2)c1=O 0.732%, COCCCNc1nc2c(S(=O)(=O)c3ccccc3)nnn2c2ccc(Cl)cc12 1.06%, CC1=C(C(=O)Nc2ccccc2)C(c2ccccc2C)n2nc(SCC(=O)c3ccc(C)cc3)nc2N1 (configuration not stated) -2.71%, CCc1ccc(NC(=O)CCS(=O)(=O)c2cc3c(cc2Cl)NC(=O)CO3)cc1 19.1%, COC(=O)c1c(-c2cccs2)csc1NC(=O)c1ccc(Br)cc1 6.05%, COC(=O)c1c(-c2cccs2)csc1NC(=O)c1cccc(Cl)c1 -14.5%, Cc1cccc(NC(=O)CSc2nc(-c3cccs3)cc(C(F)(F)F)c2C#N)c1C -4.38%, CCOc1ccc(-c2cc(CCCC(=O)NCCc3ccc(Cl)cc3)no2)cc1 4%, Cc1cccc(-c2c3c(=O)n(C)c(=O)n(C)c3c3c(C)nc4ccccc4n23)c1 8.15%, Cc1ccc(C(=O)N2CCc3cc(CNC(=O)CSc4ccccc4)ccc32)cc1 -3.73%, Cc1ccc(-c2cc(C(=O)NCc3cnn(C)c3C)c3ccccc3n2)cc1C -5.75%, CCN(c1ccccc1)S(=O)(=O)c1cc(Br)cc2c1N(C(=O)C1CC1)CC2 15.4%

outcome, inactive:
Cc1csc2nc(COC(=O)c3cccc(NC(=O)c4cccc(Cl)c4)c3)cc(=O)n12, CCCN(c1ccc(C(C)C)cc1)S(=O)(=O)c1ccc2c(c1)n(C)c(=O)c(=O)n2C, O=S(=O)(Nc1cccc(C(F)(F)F)c1)c1ccc(NS(=O)(=O)c2ccc3c(c2)OCCO3)cc1, COc1ccc(C(=O)Nc2cccc(-c3cn4ccsc4n3)c2)c(OC)c1, O=C(c1cccs1)c1cn(CCOc2ccc(Cl)cc2)c2ccccc12, CC1=C(C(N)=O)C(c2cccc(O)c2)n2ncnc2N1 (configuration not stated), CCn1c(SCc2ccccc2C)nc(=O)c2c(C(=O)OC)cc(C3CC3)nc21, O=c1cc(CSc2ncn[nH]2)[nH]c2ccc(F)cc12, COc1ccc(-n2c(Cc3ccccc3)nnc2SCc2nc(-c3cccs3)no2)cc1, COc1ccccc1N1CCN(C(=O)Cn2ncc3ccsc3c2=O)CC1, CC(C)Oc1ccc(CNC(=O)c2ccc(CS(=O)c3cccc(Cl)c3)o2)cc1 (configuration not stated), COc1cccc(-n2cc(C(=O)Nc3cccc(C(F)(F)F)c3)c3ccccc3c2=O)c1, O=C(NCc1cccs1)c1nn(-c2ccccc2Cl)nc1CO, CCN(c1cccc(C)c1)S(=O)(=O)c1ccc(-n2cccn2)cc1

Reference: PubChem BioAssay AID1963576 (National Center for Advancing Translational Sciences (NCATS), 2024)
